Several values for one entry are separate records, joined by “and”; a condition that tells them apart may be missing. Equal entries are not always repeated. The full ranking holds about 2,900 compounds; the median of “IRF Lucia reporter activity, fold change vs agonist alone” is about 0.9, and the highest 2% start at about 2.8. Some of the results follow.
What was measured:
RAW-Dual [1] = experiment: IRF Lucia reporter activity, fold change vs agonist alone; cytotoxicity flag (confluency mask): not cytotoxic; higher = enhanced IRF activity
Outline: (§1)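 Cytotoxic wells were those whose IncuCyte confluency was below 70% of agonist controls in both mask sets. The cells were RAW-Dual macrophages at 50,000 cells/well in DMEM on 384-well plates, dosed with 50 nL of library stock by pin tool, stimulated with a PRR agonist 1 h later, and kept at 37 °C, 5% CO2 for 20 hours. IRF and NF-κB reporter activity, as fold change over agonist-alone wells, came from supernatant read by QuantiLuc luminescence and QuantiBlue absorbance, respectively.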

RAW-Dual [2] = experiment: IRF Lucia reporter activity, fold change vs agonist alone; higher = enhanced IRF activity; conditions: agonist: MPLA (TLR4) […]
Outline: as §1

RAW-Dual [3] = experiment: IRF Lucia reporter activity, fold change vs agonist alone; cytotoxicity flag (confluency mask): cytotoxic (confluency <70% of control); higher = enhanced IRF activity
Outline: as §1

[4] = agonist: 3'3'-cGAMP (STING) 10 ug/mL
[5] = library stock concentration (final ~1000-fold dilution): 10 mM, cytotoxicity flag (confluency mask): not cytotoxic

Question: What does the source list for O=c1[nH]cnc2ccccc12 (library stock concentration (final ~1000-fold dilution): 10 mM)?
Answer: IRF Lucia reporter activity (RAW-Dual [1]; [4]): 1.01; IRF Lucia reporter activity (RAW-Dual [1]; agonist: LPS (TLR4) 0.1 ug/mL): 1.12

Question: How did the “IRF Lucia reporter activity” value (RAW-Dual [1]; [4]) turn out when O=C(Oc1coc(CSc2ncccn2)cc1=O)c1ccc([N+](=O)[O-])cc1 (library stock concentration (final ~1000-fold dilution): 10 mM) was run?
Answer: Its value is 0.961.

Question: What about the “IRF Lucia reporter activity” value (RAW-Dual [1]; agonist: LPS (TLR4) 0.1 ug/mL) of the same compound?
Answer: Its value is 0.56.

Question: With COc1ccccc1Oc1c(NS(=O)(=O)c2ccc(C(C)(C)C)cc2)nc(-c2ncccn2)nc1OCCO.O (library stock concentration (final ~1000-fold dilution): 10 mM) as the compound, how does the “IRF Lucia reporter activity” value (RAW-Dual [1]; [4]) read?
Answer: Its value is 1.

Question: And the “IRF Lucia reporter activity” value (RAW-Dual [1]; agonist: LPS (TLR4) 0.1 ug/mL)?
Answer: The value was 1.19.

Question: Which “IRF Lucia reporter activity” value (RAW-Dual [2]; [5]) does the source give for COc1ccccc1Oc1c(NS(=O)(=O)c2ccc(C(C)(C)C)cc2)nc(-c2ncccn2)nc1OCCO.O here?
Answer: Its value is 1.1.

Question: For CN(Cc1cnc2nc(N)nc(N)c2n1)c1ccc(C(=O)NC(CCC(=O)O)C(=O)O)cc1 (stereo not given) (library stock concentration (final ~1000-fold dilution): 10 mM water), which “IRF Lucia reporter activity” value (RAW-Dual [1]; [4]) is on record?
Answer: Its value is 0.768.

Question: What about the “IRF Lucia reporter activity” value (RAW-Dual [1]; agonist: LPS (TLR4) 0.1 ug/mL) of the same compound?
Answer: The value was 0.849.

Question: With CN(Cc1cnc2nc(N)nc(N)c2n1)c1ccc(C(=O)NC(CCC(=O)O)C(=O)O)cc1 (stereo not given) (library stock concentration (final ~1000-fold dilution): 10 mM) as the compound, how does the “IRF Lucia reporter activity” value (RAW-Dual [3]; [4]) read?
Answer: Its value is 0.801.

Question: And the “IRF Lucia reporter activity” value (RAW-Dual [3]; agonist: LPS (TLR4) 0.1 ug/mL)?
Answer: Its value is 0.929.

Question: What does the source list for CN(Cc1cnc2nc(N)nc(N)c2n1)c1ccc(C(=O)NC(CCC(=O)O)C(=O)O)cc1 (stereo not given)?
Answer: IRF Lucia reporter activity (RAW-Dual [2]; library stock concentration (final ~1000-fold dilution): 10 mM water, cytotoxicity flag (confluency mask): not cytotoxic): 1.3; IRF Lucia reporter activity (RAW-Dual [2]; library stock concentration (final ~1000-fold dilution): 10 mM, cytotoxicity flag (confluency mask): cytotoxic (confluency <70% of control)): 0.987

Question: How did the “IRF Lucia reporter activity” value (RAW-Dual [3]; [4]) turn out when COc1cc(F)ccc1-c1ncnc(Nc2cccc(CS(C)(=N)=O)c2)n1 (stereo not given) (library stock concentration (final ~1000-fold dilution): 10 mM) was run?
Answer: The value was 0.0171.

Question: And the “IRF Lucia reporter activity” value (RAW-Dual [3]; agonist: LPS (TLR4) 0.1 ug/mL)?
Answer: Its value is 0.0244.

Question: How did the “IRF Lucia reporter activity” value (RAW-Dual [1]; [4]) turn out when Nc1cc(C(F)(F)F)c(-c2nc(N3CCOCC3)nc(N3CCOCC3)n2)cn1 (library stock concentration (final ~1000-fold dilution): 10 mM) was run?
Answer: The value was 0.238.

Question: And the “IRF Lucia reporter activity” value (RAW-Dual [1]; agonist: LPS (TLR4) 0.1 ug/mL)?
Answer: The value was 1.01.

Question: Which “IRF Lucia reporter activity” value (RAW-Dual [1]; [4]) does the source give for CCN1CCCC1CNC(=O)c1cc(S(N)(=O)=O)ccc1OC (stereo not given) (library stock concentration (final ~1000-fold dilution): 10 mM) here?
Answer: Its value is 1.01 and 0.953.

Question: And the “IRF Lucia reporter activity” value (RAW-Dual [1]; agonist: LPS (TLR4) 0.1 ug/mL)?
Answer: The value was 1.28 and 1.11.

Question: How did the “IRF Lucia reporter activity” value (RAW-Dual [1]; [4]) turn out when Cl.Nc1c2c(nc3ccccc13)CCCC2 (library stock concentration (final ~1000-fold dilution): 10 mM) was run?
Answer: Its value is 0.549.

Question: What about the “IRF Lucia reporter activity” value (RAW-Dual [1]; agonist: LPS (TLR4) 0.1 ug/mL) of the same compound?
Answer: The value was 1.24.

Question: Cl.Nc1c2c(nc3ccccc13)CCCC2 was tested. Which “IRF Lucia reporter activity” value (RAW-Dual [2]; [5]) did it give?
Answer: The value was 1.03.

Question: What does the source list for Cc1cc(N2CCN(C3CNC(C(=O)N4CCSC4)C3)CC2)n(-c2ccccc2)n1 (stereo not given) (library stock concentration (final ~1000-fold dilution): 10 mM)?
Answer: IRF Lucia reporter activity (RAW-Dual [1]; [4]): 0.982; IRF Lucia reporter activity (RAW-Dual [1]; agonist: LPS (TLR4) 0.1 ug/mL): 1.22

Question: Which “IRF Lucia reporter activity” value (RAW-Dual [2]; [5]) does the source give for Cc1cc(N2CCN(C3CNC(C(=O)N4CCSC4)C3)CC2)n(-c2ccccc2)n1 (stereo not given) here?
Answer: The value was 1.02.

Source: the supplement of paper PMC10037445
